Results as given in patent US11178870B2 (priority 2017, dated 2021).

System: Colletotrichum orbiculare
Assay: whole plant or invertebrate
Details: in Cucumis sativus, read-out: Test H control value

SMILES	pest or weed control at 250 ppm [%]
CCn1c(-c2c(F)cc(F)cc2F)c(-n2cnc(Cl)c2Cl)cc(Cl)c1=O [compound 138, 3-chloro-5-(4,5-dichloro-1H-imidazol-1-yl)-1-ethyl-6-(2,4,6-trifluorophenyl)pyridin-2(1H)-one]	> 50
CCn1c(-c2c(F)cc(F)cc2F)c(-n2cc(Cl)cn2)cc(Cl)c1=O [compound 40, 3-chloro-5-(4-chloro-1H-pyrazol-1-yl)-1-ethyl-6-(2,4,6-trifluoro-phenyl)pyridin-2(1H)-one]	> 50
CCn1c(-c2c(F)cc(F)cc2F)c(-n2cnc(Cl)c2Cl)ccc1=O [compound 136, 5-(4,5-dichloro-1H-imidazol-1-yl)-1-ethyl-6-(2,4,6-trifluorophenyl)pyridin-2(1H)-one]	> 50
CCn1c(-c2c(F)cccc2F)c(-c2cccnc2Cl)cc(Cl)c1=O [compound 18]	> 50
CCn1c(-c2c(F)cccc2F)c(-c2cccs2)ccc1=O [compound 5, 6-(2,6-difluorophenyl)-1-ethyl-5-(thiophen-2-yl)pyridin-2(1H)-one]	> 50
CCn1c(-c2c(F)cc(F)cc2F)c(-n2cc(Cl)cn2)ccc1=O [compound 27, 5-(4-chloro-1H-pyrazol-1-yl)-1-ethyl-6-(2,4,6-trifluorophenyl)-pyridin-2(1H)-one]	> 50
CCn1c(-c2c(F)cc(F)cc2F)c(-c2cnco2)cc(Cl)c1=O [compound 36, 3-chloro-1-ethyl-5-(oxazol-5-yl)-6-(2,4,6-trifluorophenyl)pyridin-2(1H)-one]	> 50
CCn1c(-c2c(F)cccc2F)c(-c2c[nH]cc2C#N)cc(Cl)c1=O [compound 88, 4-(5-chloro-1-ethyl-6-oxo-2-(2,6-difluorophenyl)-1,6-dihydro-pyridin-3-yl)-1H-pyrrol-3-carbonitrile]	< 50
CCn1c(-c2c(F)cc(OC)cc2F)c(-n2cc(Cl)cn2)cc(Cl)c1=O [compound 41, 3-chloro-5-(4-chloro-1H-pyrazol-1-yl)-6-(2,6-difluoro-4-methoxyphenyl)-1-ethylpyridin-2(1H)-one]	> 50
